Test results from PubChem BioAssay AID1240 (Sanford-Burnham Center for Chemical Genomics, 2008).
Hit rate of the full screen: of about 50,000 compounds, about 800 (1.6%) showed an effect of 50% or more. The list shows a part of the results.

What follows are compounds tested against Bcl-2-like protein 10 (Homo sapiens) (UniProt Q9HD36) (assay: Phenotype converters, Bcl-B/TR3 peptide binding displacement, primary biochemical FP (AID 1240;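 also: 0% = Bcl-B with tracer peptide and DMSO and 100% = tracer peptide lacking Bcl-B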)). Conditions: GST-Bcl-B / FITC-TR3 peptide fluorescence polarization; stronger effect = higher value; compound at 3.75 mg/L.
UniProt Q9HD36, sequence (Q9HD36 whole entry, looked up): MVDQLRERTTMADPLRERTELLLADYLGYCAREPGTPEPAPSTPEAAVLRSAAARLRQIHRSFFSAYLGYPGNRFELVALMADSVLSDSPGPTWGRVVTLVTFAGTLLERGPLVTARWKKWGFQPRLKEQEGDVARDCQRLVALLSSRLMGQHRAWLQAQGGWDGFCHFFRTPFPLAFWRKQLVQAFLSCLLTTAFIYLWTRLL

Row | SMILES | displacement [%]
1 | NC1=C(Nc2ccccc2)C(=O)c2ccccc2C1=O | 13.5
2 | COc1ccc(N2C(=O)/C(=C\c3ccc(OC)cc3OC)N=C2c2ccccc2)cc1 | 192
3 | COc1ccccc1C/C(N)=N/OC(=O)COc1cccc(C)c1 | 0.4
4 | O=C(O)c1cc(NC(=O)c2ccccc2-c2ccccc2C(=O)O)cc(C(=O)O)c1 | 16.3
5 | COC(=O)c1sccc1NC(=O)/C=C/c1ccc([N+](=O)[O-])cc1 | 5.4
6 | CCCC1CCc2c(sc(NC(=O)/C=C\C(=O)O)c2C(N)=O)C1 (stereo not drawn) | 10.2
7 | CCOc1cc(/C=C(\C#N)C(=O)c2ccccc2)ccc1O | -44.7
8 | O=C(Nc1ccc(F)cc1)C1CC1(c1ccccc1)c1ccccc1 (stereo not drawn) | 0
9 | Cc1ccc(S(=O)(=O)Nc2ccc(NC(=O)C3C4C=CC(O4)C3C(=O)O)cc2)cc1 (stereo not drawn) | 8.5
10 | CC1=NNC(=O)C1CC(=O)N/N=C/c1ccc(O)cc1 (stereo not drawn) | -5.3
11 | Cc1cc(C)c2oc(-c3ccc(NC(=O)c4cc5ccccc5oc4=O)cc3)nc2c1 | -3.8
12 | Cc1cc2nc3n(c2cc1C)CCCN3 | -8.7
13 | COC(=O)c1cc(-c2ccc(N)cc2)nc2ccccc12 | -11.6
14 | CCCOC(=O)c1c(-c2ccc(-c3ccccc3)cc2)csc1N | -1.1
15 | CCOC(=O)C1=C(C)N=c2s/c(=C\c3cn(C)c4ccccc34)c(=O)n2C1c1cccs1 (stereo not drawn) | 11.5
16 | CCOC(=O)c1c(NC(=O)c2ccc(N3C(=O)CCC3=O)cc2)sc2c1CCCC2 | 2.5
17 | O=C(Nc1ccc(Cl)c(Cl)c1)NN1CCOCC1 | 2.4
18 | COC(=O)c1ccccc1NC(=O)c1ccc[n+]([O-])c1 | -4.8
19 | CCCC(=O)Oc1ccc2c(=O)c(-c3ccccc3OC)coc2c1 | 9.6
20 | O=S(=O)(c1cccc2cccnc12)N1CCN(Cc2ccc3c(c2)OCO3)CC1 | 10
21 | O=C(Cc1cccc2ccccc12)N/N=C/c1ccc(-c2cccc(Cl)c2)o1 | -0.4
22 | COc1ccc(/C=N\Nc2nc(NCc3ccco3)nc(Nc3ccc(OC)cc3)n2)cc1 | -7.7

Row | SMILES | displacement [%]
23 | C[N+]1=C2C=CC=CC=C2SC12C([N+](=O)[O-])=CC(=[N+]([O-])[O-])c1cccnc12 (stereo not drawn) | -3.8
24 | COc1cc(NC(=O)COc2ccc(Br)cc2C(C)(C)C)c(OC)cc1Cl | 2
25 | CC(C)CCn1c2ccccc2c2cc(CC(=O)O)ccc21 | 5.7
26 | Cc1ccc(N(CC(=O)N2CCCCC2)S(=O)(=O)c2ccc(F)cc2)cc1 | 0.1
27 | C/C(=N\NC(=O)c1cc(C)[nH]n1)c1ccc(C)cc1 | -16.3
28 | CN=C(Nc1ccccc1)SC1CC(=O)N(c2cccc(OC)c2)C1=O (stereo not drawn) | -7.9
29 | O=C1CC2c3ccccc3C1C1C(=O)N(c3cccc(Br)c3)C(=O)C21 (stereo not drawn) | -14.1
30 | COc1ccc(-c2cc(C(F)(F)F)n3nc(C(=O)N4CCN(C)CC4)c(Cl)c3n2)cc1 | -11.6
31 | COc1ccc(N2C(=O)C3C(c4ccccc4C)OC4(C(=O)c5ccccc5C4=O)C3C2=O)cc1 (stereo not drawn) | -4.1
32 | CC(C)(C)c1ccc(OCC(=O)N2CCC(Cc3ccccc3)CC2)cc1 | 5.3
33 | C=CCN1C(=O)/C(=C\c2ccc(-c3ccc(C(=O)OCC)cc3)o2)C(=O)NC1=S | -7.9
34 | O=C1/C(=C\c2cccc(Br)c2)SC(=S)N1CC(=O)N1c2ccccc2Sc2ccccc21 | 10.9
35 | Cc1ccc(-c2ncnn2-c2cccc(Cl)c2C)cc1 | -3.8
36 | Cc1cccc(N2C(=O)C(O)=C(C(=O)/C=C/c3ccccc3)C2c2ccc(N(C)C)cc2)c1 (stereo not drawn) | -2.2
37 | COc1cccc(NC(=O)CN(c2ccc(C)cc2)S(=O)(=O)c2ccc(SC)cc2)c1 | 7.8
38 | O=C(c1cccs1)N1CCN(Cc2cccc(Br)c2)CC1 | 9.5
39 | O=C(Nc1cc(C(F)(F)F)cc(C(F)(F)F)c1)c1ccc([N+](=O)[O-])cc1Cl | -9.1
40 | O=C(O)c1ccc(NS(=O)(=O)c2cc(C(=O)O)ccc2Br)cc1 | 1
41 | COc1cc(C=C2C(=O)NC(=O)NC2=O)ccc1OCCO | -2.4
42 | COc1cc(-c2nc3sc4c(c3c(=O)[nH]2)CCCC4)cc([N+](=O)[O-])c1O | 9.1
43 | O=C(c1ccccc1Cl)N1CCN(CCN2C(=O)c3cccc4cccc(c34)C2=O)CC1 | -12
44 | Cc1ccc(C)c(NCC(=O)Nc2c(C)cccc2C)c1 | 2.7

Row | SMILES | displacement [%]
45 | CCOc1ccc(C2/C(=C(\O)c3ccccc3)C(=O)C(=O)N2CCCCCC(=O)O)cc1 (stereo not drawn) | -7.7
46 | O=C(Cc1ccccc1)Nc1ccc(NC(=O)c2ccccc2)c(Br)c1 | 8
47 | CCCCn1c(/N=C/c2cc(Cl)ccc2O)nc2ccccc21 | 9.1
48 | O=C(Nc1ccc2nn(-c3ccc(Br)cc3)nc2c1)c1cccnc1 | -5.8
49 | CCOc1ccc(-n2c(O)c(/C=C3\C=Nc4ccccc43)sc2=O)cc1 | 3.9
50 | Cc1cc(Cl)ccc1OCC(=O)Nc1c(C)ccc2nsnc12 | 16.5
51 | O=c1[nH]c(NNC(=S)Nc2ccccc2)nc2sc3c(c12)CCCC3 | -2.4
52 | CCOC(=O)/C=C/C(=O)Nc1sc(C)c(C)c1C(N)=O | -2
53 | O=C(NCCCN1CCOCC1)c1cccc(F)c1 | -4.2
54 | CC(C)c1ccc(C=Nc2ccc(Nc3ccccc3)cc2)cc1 | 28.2
55 | Cc1ccccc1-c1nc2ccccc2c(=O)n1/N=C/c1ccc([N+](=O)[O-])cc1 | 12.8
56 | COc1ccc(CCNC(=S)NC(=O)/C=C/c2ccc(C)cc2)cc1OC | -6.7
57 | Cc1ccccc1C(=O)N1CCN(c2ccccn2)CC1 | 9.5
58 | Cc1ccc(Nc2cc(C)c3ccccc3n2)cc1 | 9.6
59 | CC1=C(C(=O)OC2CCCCC2)C(c2ccncc2)C2=C(CC(c3ccccc3)CC2=O)N1 (stereo not drawn) | -7.6
60 | COc1cccc(NC(=O)C2(C)CC3c4ccccc4C2c2ccccc23)c1 (stereo not drawn) | -5.2
61 | Cc1ccc(C)c(NC(=O)CN(c2ccc(C(C)C)cc2)S(=O)(=O)c2ccccc2)c1 | 1.7
62 | S=C1NCN(Cc2ccccc2)CN1c1ccccc1 | -7.2
63 | Cc1cccc(NC(=O)c2ccc(S(=O)(=O)N(C)C)cc2)n1 | 3.3
64 | CC1=C(C(=O)OC2CCCC2)C(c2cccc(Br)c2)C2=C(CCCC2=O)N1 (stereo not drawn) | 3.3
65 | CCc1c(O)nc(SCCN(CC)CC)n(-c2ccccc2)c1=O | 1.4
66 | Cc1c(C#N)c2ncnc(-c3ccccc3)c2n1-c1ccccc1 | 1.2

Row | SMILES | displacement [%]
67 | COc1ccc(/C(O)=C/c2nc3ccccc3[nH]c2=O)cc1 | 6.8
68 | COc1cccc(C2C(C(=O)Nc3ccccc3)=C(C)N=c3s/c(=C\c4ccc(N(C)C)cc4)c(=O)n32)c1 (stereo not drawn) | 73.6
69 | CCOc1ccccc1N1CCN(C(=O)c2ccco2)CC1 | -2.2
70 | COc1ccc(Br)cc1/C=N\n1c(C)nnc1C | -0.6
71 | O=c1/c(=C/c2ccc(C(F)(F)F)cc2)sc2nc3ccccc3n12 | 2
72 | Cn1cccc1CN1CCN(C2CCCCC2)CC1 | 10.8
73 | COc1cc(/C=N/n2cnnc2)ccc1OC(=O)c1ccco1 | -3.2
74 | CCc1ccc(S(=O)(=O)Nc2cc(Br)c(O)c3ccccc23)cc1 | 20.2
75 | CC(=O)c1ccc(NC(=O)CCCC(=O)OCC(F)(F)C(F)F)cc1 | -5.8
76 | Cc1cccc2c1N(C(=O)c1ccco1)C(C)(C)c1ssc(=S)c1-2 | -8.5
77 | O=C(COc1ccc(Cl)cc1)Nc1ccc2c(c1)Cc1ccccc1-2 | 5.4
78 | COC(=O)c1c(-c2ccc(OC)c(OC)c2)csc1NC(=O)c1ccc(OCC(C)C)cc1 | 0
79 | N#CC1=C(N)SC(N)=C(C#N)C1c1ccc(Cl)cc1 | -10.9
80 | CCCCOC(=O)c1ccc(NC(=O)c2cc3ccccc3o2)cc1 | -6.2
81 | Cc1ccc(Cl)cc1NC(=O)CCC1CCCC1 | -11.6
82 | O=c1nc(/C=C/c2ccc(N3CCOCC3)cc2)cc(C(F)(F)F)[nH]1 | -61.9
83 | O=C(c1cc2nc(-c3ccc([N+](=O)[O-])cc3)cc(C(F)(F)F)n2n1)N1CCOCC1 | 14.4
84 | COc1cccc(OCCOCCOc2cccc(OC)c2)c1 | 13.9
85 | Cc1ccc(S(=O)(=O)Nc2ccc(O)cc2)c(C)c1 | -6.1
86 | CC1=C(C(=O)Nc2cccc(C)c2)C(c2ccc(O)cc2)NC(=O)N1 (stereo not drawn) | 3.3
87 | CC1CCCC(C)N1C(=O)CCN1C(=O)c2ccccc2C1=O (stereo not drawn) | 7.8
88 | COc1ccc(OC)c(C2C(C(=O)/C=C/c3ccccc3)=C(O)C(=O)N2CCCCCC(=O)O)c1 (stereo not drawn) | -11.1

Row | SMILES | displacement [%]
89 | Cc1nnc(N/N=C/c2ccc([N+](=O)[O-])cc2)[nH]c1=O | -3.4
90 | Cc1ccc(OCC(=O)N/N=C\c2cccc(OC(=O)c3cccs3)c2)cc1 | 1.5
91 | COc1ccc(N=C2NC(=O)/C(=C/c3ccc(I)o3)S2)cc1 | -3
92 | CCc1ccc(C2CC(=O)NC(SCc3ccccc3)=C2C#N)cc1 (stereo not drawn) | -17.3
93 | CCOC(=O)c1c(NC(=O)C(OC(C)=O)c2ccccc2)sc2c1CCC2 (stereo not drawn) | 10.1
94 | COc1c(I)cc(I)cc1/C=N/NC(=O)C1COc2ccccc2O1 (stereo not drawn) | -10.9
95 | O=C(NCc1ccccc1)c1cccc(F)c1 | -12.3
96 | O=C(O)/C=C/C(=O)NNc1ccccc1[N+](=O)[O-] | -4.8
97 | Cc1cc(=O)oc2c(I)c(OCc3ccccc3)ccc12 | 8.7
98 | c1ccc(C(c2ccccc2)c2nnc(C(c3ccccc3)c3ccccc3)o2)cc1 | -2.3
99 | CCC(C(=O)Nc1cccc(C)c1)c1ccccc1 (stereo not drawn) | 13.2
100 | CN(C)c1ccc(/C=C2\SC(N3CCCC3)=NC2=O)cc1 | -20
101 | C=CCOc1ccc(/C=C2\C(=O)NC(=O)N(c3ccc(F)cc3)C2=O)cc1OC | -6
102 | C/C(=N\NC(=O)C(O)c1ccccc1)c1ccc2c(c1)CCCC2 (stereo not drawn) | 1.3
103 | O=C(NCc1ccccn1)C(=O)N/N=C/c1ccc(Br)cc1 | -0.3
104 | COc1cccc(/C=C/C(=O)c2ccc(Cl)cc2)c1 | -2.9
105 | Cc1ccc(Cl)cc1NC(=O)CN(c1cccc(Cl)c1)S(C)(=O)=O | -3
106 | CCOc1ccc(-n2c(C)c(C(C)=O)c(C(C)=O)c2C)cc1 | 0.8
107 | C(=N\Nc1nn[nH]n1)/c1ccc(OCc2ccccc2)cc1 | -5.9
108 | O=C(NC1CCCCC1)C1CC(=O)N(c2ccc(Br)cc2)C1 (stereo not drawn) | -7.6
